Results as given in PMC3445539.
No constants are given. Whether binding was seen depends on the method and setting. For part of these data: In cells and extracts the contact can be indirect. Some results given as binding are weak or reduced against the parent protein; the word gives no strength.

The chains behind the UniProt entries cited, without tags or fusion partners. Where a name states a change or a piece, a line headed by the entry shows the natural chain unless it says otherwise.
UniProt Q9BU64: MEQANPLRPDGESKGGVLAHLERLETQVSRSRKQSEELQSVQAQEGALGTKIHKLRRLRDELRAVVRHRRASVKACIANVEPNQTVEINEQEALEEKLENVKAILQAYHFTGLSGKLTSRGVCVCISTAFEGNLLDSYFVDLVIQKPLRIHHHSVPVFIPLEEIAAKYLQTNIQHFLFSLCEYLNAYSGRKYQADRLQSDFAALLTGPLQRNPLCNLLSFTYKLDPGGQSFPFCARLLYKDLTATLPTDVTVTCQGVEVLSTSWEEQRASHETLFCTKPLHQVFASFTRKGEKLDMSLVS
UniProt Q13352: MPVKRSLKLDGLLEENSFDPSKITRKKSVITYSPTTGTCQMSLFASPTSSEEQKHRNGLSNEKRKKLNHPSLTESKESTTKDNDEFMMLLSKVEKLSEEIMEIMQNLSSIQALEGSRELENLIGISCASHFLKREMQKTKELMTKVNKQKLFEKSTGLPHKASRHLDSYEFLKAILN
UniProt Q6IPU0: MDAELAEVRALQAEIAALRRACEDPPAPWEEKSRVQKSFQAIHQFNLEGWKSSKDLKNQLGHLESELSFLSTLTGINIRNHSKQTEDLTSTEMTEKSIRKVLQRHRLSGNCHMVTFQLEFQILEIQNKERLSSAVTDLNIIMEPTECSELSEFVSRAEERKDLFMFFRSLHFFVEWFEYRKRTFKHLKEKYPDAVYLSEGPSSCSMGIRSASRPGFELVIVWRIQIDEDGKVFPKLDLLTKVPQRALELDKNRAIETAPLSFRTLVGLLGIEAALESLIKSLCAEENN
UniProt Q9BS16: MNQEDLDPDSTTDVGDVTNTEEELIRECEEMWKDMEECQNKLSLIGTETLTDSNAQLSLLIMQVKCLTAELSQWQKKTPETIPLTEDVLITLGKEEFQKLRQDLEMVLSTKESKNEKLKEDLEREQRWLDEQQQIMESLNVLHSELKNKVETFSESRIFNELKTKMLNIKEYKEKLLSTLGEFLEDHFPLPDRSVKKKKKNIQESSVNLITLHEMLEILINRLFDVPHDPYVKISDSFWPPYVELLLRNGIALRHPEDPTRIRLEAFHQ
UniProt Q8N0S6: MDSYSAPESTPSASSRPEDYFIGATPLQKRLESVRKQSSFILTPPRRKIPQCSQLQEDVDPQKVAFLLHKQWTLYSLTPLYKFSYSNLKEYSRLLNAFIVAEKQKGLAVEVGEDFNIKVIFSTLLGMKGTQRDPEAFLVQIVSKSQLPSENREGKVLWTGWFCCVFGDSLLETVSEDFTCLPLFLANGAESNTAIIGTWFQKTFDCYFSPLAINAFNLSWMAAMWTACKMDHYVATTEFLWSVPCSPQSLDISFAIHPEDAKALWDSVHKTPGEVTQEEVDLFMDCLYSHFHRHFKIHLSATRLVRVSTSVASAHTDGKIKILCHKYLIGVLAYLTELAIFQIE
UniProt Q71F23: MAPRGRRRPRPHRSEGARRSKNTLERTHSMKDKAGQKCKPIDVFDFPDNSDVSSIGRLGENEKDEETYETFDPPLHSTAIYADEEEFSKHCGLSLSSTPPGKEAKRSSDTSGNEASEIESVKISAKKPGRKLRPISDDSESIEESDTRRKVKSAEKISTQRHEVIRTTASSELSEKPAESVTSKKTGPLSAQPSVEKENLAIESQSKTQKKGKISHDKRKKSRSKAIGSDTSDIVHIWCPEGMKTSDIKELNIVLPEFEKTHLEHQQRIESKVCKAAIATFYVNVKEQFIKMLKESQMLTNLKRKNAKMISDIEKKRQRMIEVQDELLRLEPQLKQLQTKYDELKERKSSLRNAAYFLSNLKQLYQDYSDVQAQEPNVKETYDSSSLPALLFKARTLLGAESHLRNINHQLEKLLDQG
UniProt Q96H22: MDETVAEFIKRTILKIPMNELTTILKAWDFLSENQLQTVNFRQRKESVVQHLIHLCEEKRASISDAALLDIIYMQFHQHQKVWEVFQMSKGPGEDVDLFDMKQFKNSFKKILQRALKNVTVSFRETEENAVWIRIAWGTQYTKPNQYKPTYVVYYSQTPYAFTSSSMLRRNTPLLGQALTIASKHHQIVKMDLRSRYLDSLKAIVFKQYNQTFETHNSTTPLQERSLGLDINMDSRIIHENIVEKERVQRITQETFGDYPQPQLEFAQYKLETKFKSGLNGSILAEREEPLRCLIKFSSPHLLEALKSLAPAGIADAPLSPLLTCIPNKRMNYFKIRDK
UniProt Q7L2Z9: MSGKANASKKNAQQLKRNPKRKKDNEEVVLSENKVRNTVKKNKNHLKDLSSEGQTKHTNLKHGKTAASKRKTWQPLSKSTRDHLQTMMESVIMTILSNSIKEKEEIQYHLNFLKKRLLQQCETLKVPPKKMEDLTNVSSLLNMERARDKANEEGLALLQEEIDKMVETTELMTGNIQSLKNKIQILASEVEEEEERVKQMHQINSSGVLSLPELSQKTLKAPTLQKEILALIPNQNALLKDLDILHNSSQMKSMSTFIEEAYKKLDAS

What was measured:
[1] = molecular target: CENP-O (yeast two-hybrid) (human) (UniProt Q9BU64); test: two-hybrid; yeast two-hybrid; methods not told
[2] = molecular target: CENP-R in the F3H assay (EGFP-tagged as bait, mCherry-tagged as prey) (human) (UniProt Q13352); test: fluorescent three-hybrid (F3H); EGFP fusion (bait) held at a lac operator repeat array by LacI-GBP in BHK cells, mCherry fusion (prey) co-expressed; fixed after about 16 hrs, confocal microscopy
[3] = molecular target: CENP-C in the F3H assay (EGFP-tagged as bait, mCherry-tagged as prey) (human) (UniProt Q03188); test: as above
[4] = molecular target: CENP-P in the F3H assay (EGFP-CENP-P as bait, mCherry-CENP-P as prey) (human) (UniProt Q6IPU0); test: as above
[5] = molecular target: CENP-O in the F3H assay (EGFP-CENP-O as bait, mCherry-CENP-O as prey) (human) (UniProt Q9BU64); test: as above
[6] = molecular target: CENP-K in the F3H assay (EGFP-tagged as bait, mCherry-tagged as prey) (human) (UniProt Q9BS16); test: as above
[7] = molecular target: CENP-L in the F3H assay (EGFP-tagged as bait, mCherry-tagged as prey) (human) (UniProt Q8N0S6); test: as above
[8] = molecular target: CENP-U in the F3H assay (EGFP-tagged as bait, mCherry-tagged as prey) (human) (UniProt Q71F23); test: as above
[9] = molecular target: CENP-N in the F3H assay (EGFP-tagged as bait, mCherry-tagged as prey) (human) (UniProt Q96H22); test: as above
[10] = molecular target: CENP-Q in the F3H assay (EGFP-tagged as bait, mCherry-tagged as prey) (human) (UniProt Q7L2Z9); test: as above
mCherry-CENP-K (human) = mCherry-CENP-K (human) (UniProt Q9BS16); test: FRET or BRET; acceptor photo-bleaching FRET, EGFP donor and mCherry acceptor, at kinetochores of living co-transfected HEp-2 cells in interphase
mCherry-CENP-P = mCherry-CENP-P (UniProt Q6IPU0); test: as above
CENP-R-mCherry (human) = CENP-R-mCherry (human) (UniProt Q13352); test: as above
CENP-P-mCherry (human) = CENP-P-mCherry (human) (UniProt Q6IPU0); test: as above
mCherry-CENP-R (human) = mCherry-CENP-R (human) (UniProt Q13352); test: as above

| Substance | binding [2] | binding [3] | binding [4] | binding [5] | binding [7] | other results |
| --- | --- | --- | --- | --- | --- | --- |
| CENP-K (yeast two-hybrid) (from UniProt Q9BS16 1-269) |  |  |  |  |  | binding [1]: binds |
| CENP-K in the F3H assay (EGFP-tagged as bait, mCherry-tagged as prey) (from UniProt Q9BS16 1-269) | binds | no binding | no binding | binds |  | binding [6]: binds weakly |
| CENP-L in the F3H assay (EGFP-tagged as bait, mCherry-tagged as prey) (from UniProt Q8N0S6 1-344) | binds |  | no binding | no binding | no binding | binding [8]: binds |
| CENP-L in the F3H assay (EGFP-tagged as bait, mCherry-tagged as prey) (from UniProt Q8N0S6 1-344) (other; other documents disagree on this pair) |  |  |  |  |  | binding [9]: no binding |
| CENP-N in the F3H assay (EGFP-tagged as bait, mCherry-tagged as prey) (from UniProt Q96H22 1-339) |  |  | no binding | no binding |  | binding [10]: no binding |
| CENP-O in the F3H assay (EGFP-CENP-O as bait, mCherry-CENP-O as prey) (from UniProt Q9BU64 1-300) | binds | no binding |  | no binding | no binding | binding [9]: no binding; binding [6]: binds |
| CENP-O-EGFP (from UniProt Q9BU64 1-300) |  |  |  |  |  | binding (mCherry-CENP-K (human)): binds weakly |
| CENP-P in the F3H assay (EGFP-CENP-P as bait, mCherry-CENP-P as prey) (from UniProt Q6IPU0 1-288) | binds weakly | no binding | no binding |  | no binding | binding [8]: binds; binding [9]: no binding; binding [6]: no binding |
| CENP-Q in the F3H assay (EGFP-tagged as bait, mCherry-tagged as prey) (from UniProt Q7L2Z9 1-268) | binds | no binding |  |  |  | binding [9]: no binding |
| CENP-R in the F3H assay (EGFP-tagged as bait, mCherry-tagged as prey) (from UniProt Q13352 1-177) |  | no binding | binds weakly | binds | binds | binding [8]: binds; binding [10]: binds; binding [6]: binds weakly |
| CENP-R-EGFP (from UniProt Q13352 1-177) |  |  |  |  |  | binding (mCherry-CENP-K (human)): binds |
| CENP-U in the F3H assay (EGFP-tagged as bait, mCherry-tagged as prey) (from UniProt Q71F23 1-418) | binds | no binding | binds |  | binds weakly |  |
| CENP-U-EGFP (from UniProt Q71F23 1-418) |  |  |  |  |  | binding (mCherry-CENP-P): binds |
| EGFP-CENP-O (from UniProt Q9BU64 1-300) |  |  |  |  |  | binding (mCherry-CENP-K (human)): binds |
| EGFP-CENP-R (from UniProt Q13352 1-177) |  |  |  |  |  | binding (mCherry-CENP-K (human)): binds |
| EGFP-CENP-U (from UniProt Q71F23 1-418) |  |  |  |  |  | binding (mCherry-CENP-P): binds weakly; binding (CENP-R-mCherry (human)): binds; binding (CENP-P-mCherry (human)): binds; binding (mCherry-CENP-R (human)): binds |
